# Reference: patent US20160040149A1, “Compositions Having Dicamba Decarboxylase Activity and Methods of Use” (priority 2013, published 2016)
# B1: 65 (protein, listed as Ailuropoda melanoleuca)
# chain: MAKIDVHSHILPKEWPDLKKRFGYGGWVQLQHHNKGEAKMMKDGKVFRVVQENCWDPEVRIREMDQTGVTVQALSTVPVMFSYWAKPQDTLDLCQLLNNDLAATVANHPRRFVGLGTLPMQAPELAVKEMERCVKELGFPGVQIGSHINEWDLNAKELFPVYAVAEKLNCSLFVHPWDMQMDGRMAKYWLPWLVGMPAETTTAICSMIMGGVFEKFPKLKVCFAHGGGAFPFTVGRISHGFNMRPDLCAQDNPINPKKYLGSFYTDSLVHDPLALKLLTDVIGKDKVILGTDYPFPLGELEPGKLIESMEEFEEETKDKLKAGNALAFLGLERKQFE
# B2: 66 (protein, listed as Amphimedon queenslandica)
# chain: MASGIKVDIHNHILPERWPDLKERYGYGGWIQLHHHCQGKARMLKDGQLFRVVDENCWSPEARIKDMDNTGVTVQALSTVPVMFSYWAKPEDTLDLCKILNNDLAQTVAKFPKRFVGLGTLPMQAPELAVQELKRCIKELGFPGVQIGSHVNEWNLDATELQCVFAAAEELNAAVFVHPWDMETGGRMSKYWLPWLVGMPAETATAICSVLFGGVLERHPNLKICFAHGGGSFPYTIGRIEHGFNVRPDLCATENSVNPRSYIGKVYTDSLVHDQKALKFLVDIIGEDRVVLGSDYPFPLGEHFPGKLIESIEEWDTSLKDKLLSKNAFEFLGLDPSQYET
# B3: 67 (protein, listed as Amblyomma maculatum)
# chain: MASSFSAAANLKIDLHAHVTPDRWPNLRERYGYGGWLDIKHESDKTAVMSYDDGRFFRRIESNCWNIDERIADMDRTGVTVQALSTTPVLFSYWAKPEDALDFSRLQNDFVASLVNRRPDRFVGMCTVPMQSPQLAAEELKRCVSQLGFRAVIVGSHINEWTLADRALDPFYRTVKELGVSIFVHPWDMPPSTRYNKYWLQWLVGMPAETTAAICEVIFGGLLERFPRLKLCFAHGAGSFPYTVGRIQHGFDVRPDLCAVDNKIPPKGYLGEIYADSLVHNRGSLRLLLDTLGEDRVMLGSDYPYPLGEIDRPGRLIETSGLQNSVKEKLLWKKCCELPRN
# Assay: Saturation mutagenesis of SEQ ID NO:109: dicamba decarboxylation activity of point mutants (CO2 released), fold of backbone (Tables 7, 8, Megatable 1)
# Settings: decarboxylation activity (CO2 released) of point mutant vs unmutated backbone protein; backbone SEQ ID NO: 109
row,Molecule,Fold Activity
1,B1,1.7 fold
2,B2,1.6 fold
3,B3,1.3 fold
